Measurements taken from patent US8791092B2 (priority 2009, dated 2014).

Biological target: Aβ42 (Homo sapiens, UniProt P05067)
Assay: Aβ42 aggregation measured by dynamic light scattering (DLS)
Format: biochemical
Set-up: C) 30 μM Aβ42
Settings: 1:1 concentration ratio

SMILES: O=P(O)(O)Oc1c2c(c(OP(=O)(O)O)c3c1C1C[C@H]3c3cc4c(cc31)C1C[C@H]4c3ccccc31)[C@@H]1CC2c2cc3c(cc21)[C@@H]1CC3c2ccccc21 [TW1]
- abundance of Aβ42 fraction of RH=20-60 nm particles versus absence of tweezers (DLS): about twice as abundant
